Each structure is given as a SMILES string. The campaign covered roughly 310,000 compounds. About 2,200 (0.71%) showed an effect of 50% or more. Effects have a minus sign here. The list shows a part of the results.

The target of the test is human ether-à-go-go-related gene (hERG) potassium channel (human, UniProt Q12809). As to the kind of experiment: primary screen, population patch clamp on CHO cells stably expressing hERG.
human ether-à-go-go-related gene (hERG) potassium channel, sequence (Q12809 whole entry, looked up): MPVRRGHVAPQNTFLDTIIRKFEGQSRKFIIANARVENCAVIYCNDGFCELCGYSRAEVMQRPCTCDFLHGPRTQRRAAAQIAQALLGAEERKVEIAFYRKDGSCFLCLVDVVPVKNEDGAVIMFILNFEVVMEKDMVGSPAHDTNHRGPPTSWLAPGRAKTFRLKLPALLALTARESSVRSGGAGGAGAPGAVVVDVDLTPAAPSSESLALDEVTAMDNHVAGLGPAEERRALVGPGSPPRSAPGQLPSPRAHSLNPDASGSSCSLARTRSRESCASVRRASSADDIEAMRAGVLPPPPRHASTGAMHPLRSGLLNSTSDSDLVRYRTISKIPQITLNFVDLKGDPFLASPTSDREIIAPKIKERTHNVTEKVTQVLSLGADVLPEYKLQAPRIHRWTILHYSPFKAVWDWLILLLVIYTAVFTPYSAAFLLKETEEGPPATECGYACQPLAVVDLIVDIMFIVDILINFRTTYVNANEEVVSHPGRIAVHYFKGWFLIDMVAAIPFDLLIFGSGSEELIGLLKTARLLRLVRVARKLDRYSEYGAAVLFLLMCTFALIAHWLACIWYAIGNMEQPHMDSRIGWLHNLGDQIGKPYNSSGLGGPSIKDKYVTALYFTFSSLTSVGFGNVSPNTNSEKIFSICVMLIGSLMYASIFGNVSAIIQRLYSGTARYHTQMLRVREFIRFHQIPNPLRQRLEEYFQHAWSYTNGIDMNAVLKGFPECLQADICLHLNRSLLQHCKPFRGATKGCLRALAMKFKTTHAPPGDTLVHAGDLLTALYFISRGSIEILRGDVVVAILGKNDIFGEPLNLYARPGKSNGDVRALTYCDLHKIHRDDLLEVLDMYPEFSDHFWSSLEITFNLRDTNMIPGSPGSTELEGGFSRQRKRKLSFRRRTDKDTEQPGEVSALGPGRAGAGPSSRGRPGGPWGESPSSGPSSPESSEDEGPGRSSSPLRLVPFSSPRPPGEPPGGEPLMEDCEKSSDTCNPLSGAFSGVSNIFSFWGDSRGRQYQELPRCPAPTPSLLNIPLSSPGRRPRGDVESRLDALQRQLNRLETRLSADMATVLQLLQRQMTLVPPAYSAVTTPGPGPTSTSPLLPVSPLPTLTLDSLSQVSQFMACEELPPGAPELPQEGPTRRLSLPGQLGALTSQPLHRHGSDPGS
Consider `CCn1nc(C(=O)OCC(=O)N2CCc3ccccc32)c2ccccc2c1=O`, for which the “hERG current change (%, negative = inhibition) at 1uM” value is 8.09%.
Under `Cc1ccc(C(c2nnnn2C2CCCC2)N2CCc3ccccc32)cc1` (centres unmarked) stands 13.5%.
Under `CC(C)(C)C1CCc2c(sc(NC(=O)c3ccco3)c2C(N)=O)C1` (centres unmarked) stands 14.1%; under `CCOC(=O)c1nnn(-c2nonc2-n2cccc2)c1CN1CCC(C(=O)OCC)CC1`, 0.713%; under `CCc1cccc(C)c1NC(=O)CCCN1C(=O)CN(C)C1=O`, 5.09%.
With `CC(=O)Nc1ccc2nc(C3CCCCC3)[nH]c2c1` the figure was 9.15%; with `Cc1cc(NC(=O)c2ccc(Cl)cc2Cl)n(CCC#N)n1`, 8.49%; with `Cc1c(Cl)cccc1NC(=O)CCN1CCCCC1`, 3.01%.
Regarding `CCCn1cc(S(=O)(=O)c2ccc(F)cc2)c(=O)c2cc(OCC)ccc21`, the “hERG current change (%, negative = inhibition) at 1uM” value worked out at 1.86%.
Under `CCC(C)N(C(=O)Cn1nc(C)c([N+](=O)[O-])c1C)C1CCS(=O)(=O)C1` (centres unmarked) stands 9.48%; under `COc1ccc(CCNC(=O)c2ccco2)cc1`, 11.1%; under `Cc1ccccc1OCc1nnc(SCC(=O)Nc2ccc(N3CCOCC3)c(Cl)c2)n1C`, 6.62%.
Under `CCOc1ccc(N2C(=O)CC(N3CCOCC3)C2=O)cc1` (centres unmarked) stands -2.76%; under `CCCCNC(=O)c1ccc(Cn2c(=S)[nH]c3c([nH]c4ccc(OC)cc43)c2=O)cc1`, -18.6%.
Under `COc1cc(C(=O)NNC(=O)COc2ccc(C)cc2)ccc1OCC(=O)N1CCOCC1` stands 6.65%; under `Cc1nnc(NC2=NCCCCC2)o1`, 13.1%.
`CN(C)S(=O)(=O)c1cccc(NC(=O)/C=C/c2ccc(S(=O)(=O)N3CCOCC3)cc2)c1`: the “hERG current change (%, negative = inhibition) at 1uM” value came out at 12.6%.
Under `O/N=C(\c1ccc2c(c1)OCCO2)C1CCCCC1` stands 14.8%.
Under `CCOc1cc(NC(=O)c2cccs2)c(OCC)cc1NC(=O)c1ccco1` stands 17.8%.
Turning to `COc1ccc2nc(N3CCCCC3)c(/C=C3\SC(=S)NC3=O)cc2c1`, the “hERG current change (%, negative = inhibition) at 1uM” value turned out to be 14.2%.
Take `COc1cccc(OC)c1C(=O)NC(=S)NCc1ccco1`: the “hERG current change (%, negative = inhibition) at 1uM” value worked out at 14.7%.
With `Cn1cccc1Cc1nnc(SCC(N)=O)n1CCc1ccccc1` the figure was 3.62%; with `CN(Cc1c(F)cccc1Cl)C(=O)c1cnc2ccccc2n1`, 11.1%; with `CCc1ccc(C(=O)CSc2nc3ccccc3c(=O)[nH]2)cc1`, -9.07%.
Under `CC(=O)CSc1nc(N)c(C#N)c(-c2cccs2)c1C#N` stands 11.2%.
Under `CN(C)CCNC(=O)C(=O)C1C(=O)Nc2ccccc21` (centres unmarked) stands 6.47%.
On to `CCO.Cc1cc(C)n(CCc2nc(-c3ccc(-c4ccccc4)cc3)cs2)n1`, for which the “hERG current change (%, negative = inhibition) at 1uM” value was determined as 2.73%.
Under `CCC(CC)C(=O)NCCCCc1ccccc1` stands 8.32%.
Under `CCOC(=O)c1ccc(NC(=S)N2CCN(Cc3ccccc3)CC2)cc1` stands 6.04%.
Under `CN1CCN(c2ccc(NC(=O)c3ccc(Oc4ccccc4)cc3)cc2)CC1` stands 11.7%; under `S=c1[nH]nc(COc2ccc(Cl)cc2)n1-c1ccccc1`, 12%; under `CC1CCCC(C)N1CCCNC(=O)CCn1c(=O)c2cccn2c2cccnc21` (centres unmarked), 15%.
For the compound `COc1ccc(C(=O)CSc2nnc(NC(=O)C3CC(=O)N(c4ccccc4C)C3)s2)cc1` (centres unmarked), the “hERG current change (%, negative = inhibition) at 1uM” value is 14.3%.
With `CCN1C(=O)N[C@@H](c2ccccc2)[C@H](C(C)=O)[C@H]1C` the figure was 14.5%; with `CC(C)N(Cc1cnn(C)c1)C(=O)C1CCC(=O)N(CCc2cccc(F)c2)C1` (centres unmarked), 12.7%; with `O=C(c1nn2c(C(F)(F)F)cc(-c3cccs3)nc2c1Br)N1CCCc2ccccc21`, 15.4%.
Under `CCCOc1ccc(-c2c(=O)n(O)c3ccccc3[n+]2[O-])cc1` stands 15%; under `O=C1c2ccccc2C(=O)N1CN(C(=O)COc1ccc(Cl)cc1Cl)c1cccc(F)c1`, 12.3%.
On to `CCc1c(C(C)S(=O)(=O)c2ccc(C)cc2)[nH]c(=O)n1-c1ccc(C)cc1` (centres unmarked), for which the “hERG current change (%, negative = inhibition) at 1uM” value worked out at 16%.
With `COc1ccc(-c2c(NC(=O)c3ccco3)oc3ccccc3c2=O)cc1` the figure was 16.8%; with `CN(C)CCn1nnc2c(=O)oc3ccccc3c21.Cl`, 2.55%.
With `CCCC1(c2ccccc2)NC(=O)N(CC(=O)Nc2cc(C)on2)C1=O` (centres unmarked) the figure was -0.602%.
Consider `COc1ccc(CN2CCNC(=O)C2CC(=O)N(C)Cc2ccno2)c(F)c1` (centres unmarked), for which the “hERG current change (%, negative = inhibition) at 1uM” value is given as 14.6%.
Under `COc1cc(CCC(=O)NCC2CCCO2)cc(OC)c1OC` (centres unmarked) stands 9.77%; under `OCCC#Cc1ccc(CN2CCN(Cc3ccsc3)C(CCO)C2)cc1` (centres unmarked), 10.5%; under `CN1CCc2c(sc3c2c(=O)n(-c2ccccc2)c2n[nH]c(=S)n32)C1`, -11%.
Under `O=C(CCN1C(=O)C2CCCCC2C1=O)Nc1nc2ccc(F)cc2s1` (centres unmarked) stands -1.32%.
Regarding `CC(C)(C)c1cc(NC(=O)Nc2ccccc2OC(F)(F)F)no1`, the “hERG current change (%, negative = inhibition) at 1uM” value turned out to be 14.8%.
On to `CCOC(=O)N1CCN(c2ccc(C(C)=O)cc2F)CC1C` (centres unmarked), for which the “hERG current change (%, negative = inhibition) at 1uM” value worked out at 17.7%.
As to `CCCc1ccc(S(=O)(=O)N/N=C\c2ccc3c(c2)OCO3)cc1`, the “hERG current change (%, negative = inhibition) at 1uM” value is reported as -3.43%.
`CCOc1ccc(/C=N/NC2=NCCCCC2)cc1`: the “hERG current change (%, negative = inhibition) at 1uM” value is recorded as -19.3%.
Under `COc1cc(OC)cc(C(=O)NC(C)CNc2ccc(Cl)cc2[N+](=O)[O-])c1` (centres unmarked) stands 7.43%.
Under `N#Cc1cccc(Cn2cc(C(F)(F)F)ccc2=O)c1` stands -0.628%; under `O=c1[nH]c2cc3c(cc2cc1CN(Cc1nnnn1CC1CCCO1)C1CCCCC1)OCO3` (centres unmarked), 8.84%.
Under `CC(=O)Nc1ncc(Cc2cccc(Cl)c2)s1` stands 9.23%; under `CCOC(=O)c1sc(NC(=O)COC(=O)C(CCSC)NC(C)=O)nc1C` (centres unmarked), -1.14%; under `Nc1nc2ccccc2n1CCOc1ccc(Br)cc1`, -15.4%.
Take `O=C(COC(=O)C1CCC1)Nc1ccccc1Sc1ccccc1`: the “hERG current change (%, negative = inhibition) at 1uM” value amounted to 12.9%.
With `Cc1ccc(CNS(=O)(=O)c2c(C(=O)N3CCCCC3)c(C)n(C)c2C)o1` the figure was 16.9%.
Under `COc1ccc2nc(NC(=O)CSc3nc4ccccc4o3)sc2c1` stands 12.8%.
With `S=C(Nc1ccccc1Cl)N1CCC(c2ccccc2)C1` (centres unmarked) the figure was -6.92%; with `c1coc(-c2nnc(-c3cccs3)o2)c1`, 7.51%.
For `O=C(OCn1nnc2ccccc2c1=O)c1cccs1`, the “hERG current change (%, negative = inhibition) at 1uM” value worked out at 3.91%.
With `Cc1cc(NC(=O)Cn2cc([N+](=O)[O-])cn2)n(Cc2ccc(F)cc2)n1` the figure was 8.19%; with `CCc1nc2ccc(F)cc2c(C(=O)NC2CCCCC2C)c1C` (centres unmarked), 12.9%; with `COc1cccc(C2CC(c3cccc(Br)c3)n3ncnc3N2)c1` (centres unmarked), -17.2%.
Under `COC(=O)c1ccc(Cn2nc(-c3ccccc3)ccc2=O)cc1` stands 5.49%; under `CCCSc1nnc(NC(=O)c2sc3nc(-c4cccs4)ccc3c2N)s1`, 10.5%.
With `CC1CCN(c2ccccc2NC(=S)NC(=O)c2ccc(-c3cccc([N+](=O)[O-])c3)o2)CC1` the figure was 10.6%.
`Cc1nn(-c2ccccc2)c2c1C(c1ccc(F)cc1)C(C#N)=C(N)O2` (centres unmarked): the “hERG current change (%, negative = inhibition) at 1uM” value worked out at 7.1%.
Under `Cc1ccc(NC(=O)CNC(=O)Cc2cccc3ccccc23)c(O)c1` stands 20.3%.
With `Cc1ccc(-n2c(=O)cc(N3CC(C)OC(C)C3)[nH]c2=O)cc1` (centres unmarked) the figure was 10.6%; with `Cc1ccc(C)c(N2CCN(C(=O)Cn3c(=O)[nH]c4ccsc4c3=O)CC2)c1`, 13.1%; with `COc1ccc(C(=O)N=S2CCN(C(=O)c3ccc(Cl)cc3)CC2)cc1`, 0.232%.
With `CC(C)(C)c1ccc(OCC(=O)NNC(=S)NC(=O)c2ccccc2[N+](=O)[O-])c(Br)c1` the figure was 15.9%; with `COc1ccc(C)cc1NC(=O)c1ccc(NS(=O)(=O)c2c(C)noc2C)cc1`, 13.2%.
In the case of `COc1cc(OC)c(NC(=S)NCc2ccc(F)cc2)cc1Cl`, the “hERG current change (%, negative = inhibition) at 1uM” value is 8.5%.
Under `COc1ccccc1NC(=O)c1ccc(N)cc1` stands 9.8%.
Under `CC1CN(C(=O)c2cccc(COc3ccccc3Cl)c2)CC(C)O1` (centres unmarked) stands 4.28%; under `O=C(Nc1sc2c(c1C(=O)O)CCCCC2)c1ccccc1F`, 1.44%.
Under `COc1cc(C2CC(=O)C3=C(C2)Nc2ncnn2C3c2cccs2)cc(OC)c1OC` (centres unmarked) stands 8.89%; under `Cc1ccc(NC(=O)c2cccc(S(=O)(=O)N3CCCC3)c2)nc1`, 4.12%.
As for `O=C(Nc1ccc(C(F)(F)F)cc1)C1CCCCN1S(=O)(=O)c1ccccc1` (centres unmarked), the “hERG current change (%, negative = inhibition) at 1uM” value is -3.36%.
Turning to `Cc1ccc(-c2nc(-c3cccnc3)sc2CC(=O)Nc2ccc3nc(C)sc3c2)cc1`, the “hERG current change (%, negative = inhibition) at 1uM” value turned out to be 1.31%.
Turning to `Cc1nc(N2CCC(C(N)=O)CC2)c2nnn(Cc3ccccc3)c2n1`, the “hERG current change (%, negative = inhibition) at 1uM” value is given as 16%.
Under `COc1ccc(/C=C(/CC(=O)NCc2ccc(Cl)cc2)c2nc3ccccc3s2)cc1` stands 11.1%; under `CC1CCCCN1S(=O)(=O)c1ccc(N(C(=O)c2cnccn2)C(C(=O)NC2CCCCC2)c2cccs2)cc1` (centres unmarked), 6.26%; under `CCn1cc(/C=C/C(=O)Nc2ccn(Cc3c(F)c(F)cc(F)c3F)n2)cn1`, 9.01%.
Under `CC1(C)OC(=O)C=C[C@]2(C)[C@H]3CC[C@@]4(C)[C@H](c5ccoc5)OC(=O)[C@H]5O[C@]54[C@]3(C)C(=O)C[C@@H]12` stands 9.45%.

Values taken from article PMC4336329 (PLoS ONE, 2015).
